Results on 167 variants are retold here after the RNAGym collection of RNA variant scans (doi:10.7554/elife.90254).

The source gives no read counts; variants with many changes may rest on few reads.

B1: LINE1-mini (parent)
chain: GGCAGAGCUCAACACAGCGUGGCAAAGUGGCUGUGGCUAGACUGCC

In this data set the parent is B1. The data set is described as follows: self-cleavage, relative activity (ratio to wild type); higher = more cleavage; in vitro, sequencing; the parent is a self-cleaving ribozyme.
As to G5U U9G A39G, the self-cleavage turned out to be 0.13.
For the variant A6C A25C C37U C46A, the self-cleavage worked out at 0.07.
On to A6C A25U U32A, for which the self-cleavage stood at 0.04.
As to G5U G27A C31U, the self-cleavage amounted to 0.06.
Then G5U U9A A12G, with 0.03; and A6C A26U G29A G30C, with 0.21; and A6C A12C G29A C42U, with 0.
As for A6C C8A C10A G44U, the self-cleavage came to 0.26.
For G5U U9A A14U G17U A24G G35U, the self-cleavage was 0.11.
Regarding A6C G7A G29A, the self-cleavage is 0.03.
Consider G5U U34C A39C G44U, for which the self-cleavage amounted to 0.01.
Take G5U G29C G40C C42U: the self-cleavage was determined as 0.01.
With A6C A16U A26G, the self-cleavage came to 0.38.
As for A6C A12U U20C, the self-cleavage came to 0.24.
For A6C A26U G36A C45A, the self-cleavage was determined as 0.11.
Take A6C A14U U20C G30A C37A: the self-cleavage amounted to 0.07.
For the variant G5U U9G G17U G22A A41U C45G, the self-cleavage came out at 0.03.
Regarding A6C A25C G44U C45A C46G, the self-cleavage was 0.07.
Turning to A6C C13A G17C, the self-cleavage came out at 0.02.
Then A6C C23A C45U, with 0.38.
The figure for G5U G21A C45A is 0.08; for A6C A14G G19C C37U it is 0.02; for A6C G7C A24G it is 0.06.
As to A6C C13G U32A, the self-cleavage amounted to 0.28.
As to A6C C23A G27A, the self-cleavage was 0.31.
Regarding A6C A11C A16U G29A, the self-cleavage turned out to be 0.01.
Then G5U U20G G30U C37A, with 0.02; and G5U G29U C45G, with 0.03; and A6C C8G U9C C13U U20A G30U, with 0.02.
Then A6C A11G A16C G27U, with 0.03.
For the variant A6C A16U C37A G40A A41U, the self-cleavage stood at 0.01.
In the case of A6C A14G G19C, the self-cleavage stood at 0.25.
G5U G29U U32G C46G: the self-cleavage turned out to be 0.
The figure for A6C G7C G17U U28G C31G is 0.01; for A6C C10A U20A G35A it is 0.07; for G5U G22U C37A G40A G44A it is 0.02.
The figure for A6C C18U G27C G35U is 0.02; for G5U U20C C23G G30A it is 0.15; for A6C G7C C31G it is 0.17.
A6C C10A C13A: the self-cleavage worked out at 0.03.
For A6C C8G C18A A25C, the self-cleavage worked out at 0.01.
Take A6C C15A G27C: the self-cleavage amounted to 0.03.
As to A6C A16C G35U, the self-cleavage worked out at 0.04.
With G5U G27U C42A C46U, the self-cleavage was found to be 0.13.
Turning to A6C C18G C31A C37G, the self-cleavage was determined as 0.01.
Consider A6C C13G A14U, for which the self-cleavage was 0.26.
Take A6C A26U G30U: the self-cleavage was 0.55.
The figure for G5U U9G C15A C18A G19C G44A is 0.14; for G5U U9A C46A it is 0.12.
Consider A6C C13G C15U G44U, for which the self-cleavage was 0.01.
Then A6C C8U U20A G27U U34G, with 0.11; and G5U G30U C31A, with 0.03; and A6C C15U A25C A26U A39G, with 0.08.
As for G5U G27A G30C, the self-cleavage is 0.06.
A6C C31A G33C U34G: the self-cleavage came to 0.03.
Take A6C A12G C42A: the self-cleavage amounted to 0.03.
Turning to A6C A11C C15A A26C, the self-cleavage was 0.01.
On to G5U U28G G36C, for which the self-cleavage amounted to 0.01.
For the variant A6C A39U C46A, the self-cleavage was found to be 0.11.
For the variant A6C A41U C46G, the self-cleavage came to 0.07.
As to G5U G40U A41G, the self-cleavage was 0.09.
Turning to A6C A12U A16U A26C, the self-cleavage is 0.05.
As to G5U U9A C18U U20A U28C G40U C46A, the self-cleavage worked out at 0.02.
Regarding G5U G21U G27U, the self-cleavage came out at 0.33.
On to A6C A39U U43G, for which the self-cleavage came out at 0.04.
On to A6C A12G C46G, for which the self-cleavage was determined as 0.01.
As to G5U U20G A24G A25U, the self-cleavage was 0.07.
Then A6C A26G G35C C45A, with 0.05; and A6C C13A G33U U34C A41G, with 0.13; and G5U G22U A26C U34A A41U U43C, with 0.05.
With G5U U9G G17U G27C G33A, the self-cleavage came to 0.12.
Then A6C C23G G29C, with 0.57; and A6C C8U C31U C42U, with 0.21; and A6C C10U C18A, with 0.06.
Consider G5U U20C G22U A25C, for which the self-cleavage is 0.05.
As to G5U U20A G33A U43C, the self-cleavage amounted to 0.01.
Take A6C A25C U28A C31G G40U: the self-cleavage is 0.02.
For A6C C23U G35U U43C, the self-cleavage was 0.06.
G5U G36A C45A: the self-cleavage was 0.
For A6C A26C G33U C45G, the self-cleavage is 0.02.
Regarding G5U G22C G40C, the self-cleavage worked out at 0.01.
The figure for G5U U9G G40U is 0.02.
Take G5U U20G U43C: the self-cleavage was found to be 0.04.
As to A6C A25G G44A C45U, the self-cleavage was found to be 0.03.
Take A6C C13U G19U U38G: the self-cleavage came out at 0.
Then G5U G27C C42G, with 0.03; and A6C C18A G29C U38G C45G, with 0.01.
Turning to A6C C13U G17A G44A, the self-cleavage came out at 0.04.
Consider A6C A11C G40A, for which the self-cleavage is 0.05.
With A6C A16U C18A G22A C37A U38A G40A, the self-cleavage is 0.16.
Take A6C A11G G36U C46G: the self-cleavage is 0.05.
Then A6C A16C G33A C45G, with 0; and G5U U9A G21U, with 0.1.
With A6C C31U G36A C37U, the self-cleavage came out at 0.05.
As for A6C C15G C23U G29U G35A, the self-cleavage is 0.07.
Consider G5U G36C U38A, for which the self-cleavage was 0.03.
As to A6C A24G G35A, the self-cleavage turned out to be 0.07.
Take A6C C23G A26C U43A: the self-cleavage is 0.03.
As for A6C A14C C15U, the self-cleavage was found to be 0.13.
The figure for G5U G22C G27C G35U is 0.02.
With A6C A26C C37A C46G, the self-cleavage came out at 0.06.
Turning to G5U U9G U34A G35U, the self-cleavage is 0.14.
For the variant A6C C10A A11G A12G G30C C37A, the self-cleavage worked out at 0.
As for A6C C13U C23A G40C, the self-cleavage was 0.1.
The figure for A6C A12G G21U G33A U43G is 0.01.
Then A6C C10U A12U C13U C15U U28G C45U, with 0.04; and A6C C13A A14U C46G, with 0.05.
With A6C C13G G35A A41U, the self-cleavage was 0.04.
On to G5U U20A U38C, for which the self-cleavage is 0.03.
The figure for A6C C8A A11C C23U C42A U43A is 0.01.
On to G5U G30C C31U, for which the self-cleavage came out at 0.03.
Regarding G5U G30C C31A, the self-cleavage worked out at 0.08.
With A6C C8U C15G C42U, the self-cleavage was determined as 0.01.
For G5U G21U U38G C42A, the self-cleavage amounted to 0.02.
Consider G5U U9C A14U U34G G40U C42U, for which the self-cleavage came to 0.02.
For A6C C10A G30U, the self-cleavage stood at 0.58.
In the case of A6C G7U C15U C31A U34C A39U, the self-cleavage came to 0.08.
The figure for A6C A16U U34C is 0.02; for A6C C10U U32A it is 0.
The figure for G5U G21A G33A U38G is 0.02.
On to G5U U9A A11G U20C C37G, for which the self-cleavage was found to be 0.
The figure for A6C A12C C13A A16G is 0.03; for G5U G35U G40A it is 0.02; for G5U U32G G36C it is 0.02.
For the variant A6C A11C U20A G27C, the self-cleavage came out at 0.
Take G5U G21U A25C G35U C42A C45G: the self-cleavage came to 0.04.
A6C C8A U9G G22A C31A C37G C42U: the self-cleavage worked out at 0.07.
The figure for A6C C8G U34C G44A is 0.02; for G5U U20G C37U it is 0.02.
In the case of G5U U38C C46G, the self-cleavage stood at 0.
The figure for G5U G40U C46G is 0.05.
As to A6C A26G G30U, the self-cleavage came out at 1.85.
Regarding A6C C8A G22C, the self-cleavage came to 0.29.
Regarding G5U G22C G29U G40C, the self-cleavage is 0.03.
As for A6C C13G U20A G22A G27U C31A, the self-cleavage is 0.07.
In the case of A6C C15A A24C U28C U38C, the self-cleavage turned out to be 0.01.
On to A6C C31G G40C U43G, for which the self-cleavage came out at 0.02.
A6C C15G G35U G36A: the self-cleavage came to 0.02.
G5U G33A G35U: the self-cleavage is 0.05.
The figure for G5U G33A G35A is 0.08.
Turning to G5U G27A G33C, the self-cleavage amounted to 0.09.
Take A6C C15U U20C C42G: the self-cleavage worked out at 0.03.
Take G5U U28A U38A: the self-cleavage is 0.03.
Then G5U G22A A24U, with 0.11; and A6C C13A A14G G17U G22C C23A, with 0.05.
Take G5U G21U G22A: the self-cleavage was found to be 0.1.
For the variant A6C C37A C46U, the self-cleavage was found to be 0.04.
As for G5U U9A C18A G21A U38G, the self-cleavage was determined as 0.08.
Take A6C C8G G29U G44C: the self-cleavage is 0.02.
A6C C8U A14G: the self-cleavage is 0.04.
G5U G21U U34A: the self-cleavage came to 0.04.
Consider A6C C8U C13U, for which the self-cleavage came to 0.63.
Then G5U G21A C23U A39C, with 0.08; and G5U U9A G44U, with 0.06.
As to A6C C8G U20C G35C, the self-cleavage was 0.
For the variant A6C G7U C37U, the self-cleavage was 0.04.
For the variant G5U G21A G27U U34A, the self-cleavage was 0.2.
Then G5U U9C G22C, with 0.01; and G5U U9C G22U, with 0.04.
As to A6C C13G A14U G19U, the self-cleavage came out at 0.03.
Then G5U U9C G36C G40U, with 0.02; and A6C C8G C13A U32C G40U, with 0.03; and A6C C18G G27A, with 0.34.
G5U G27A A39G C45U: the self-cleavage came out at 0.03.
A6C C10A C13A G33U: the self-cleavage came out at 0.01.
For A6C C13A G29U, the self-cleavage was determined as 0.12.
Then A6C C13A G29A, with 0.11.
